According to PubChem BioAssay AID2147 (National Center for Advancing Translational Sciences (NCATS), 2009):
Several values for one entry are separate records, joined by “and”; a condition that tells them apart may be missing. Equal entries are not always repeated. About 3,600 (1.6%) of roughly 230,000 compounds were called active. The shares of active, inactive and inconclusive entries below differ from those in the screen. Calls come from the whole dose curve; as a rule, active = well fitted inhibition curve with a large enough effect (not every such curve was filed as active); inconclusive = small, poorly fitted or top-dose-only effect, or another doubt; inactive = no such curve, though single readings can be large or run the other way. A potency beside an inconclusive call is a rough fit, not a confirmed value.

These compounds were tested against Lysine-specific demethylase 4E (Homo sapiens) (UniProt B2RXH2) (assay: qHTS Assay for Inhibitors of Human Jumonji Domain Containing 2E (JMJD2E)). Conditions: JMJD2E catalytic domain, FDH-coupled NADH fluorescence (FDH is formaldehyde dehydrogenase); series mostly up to 57.1 µM.
Sequence of UniProt B2RXH2 (B2RXH2 whole entry, looked up, the tested form may be a part): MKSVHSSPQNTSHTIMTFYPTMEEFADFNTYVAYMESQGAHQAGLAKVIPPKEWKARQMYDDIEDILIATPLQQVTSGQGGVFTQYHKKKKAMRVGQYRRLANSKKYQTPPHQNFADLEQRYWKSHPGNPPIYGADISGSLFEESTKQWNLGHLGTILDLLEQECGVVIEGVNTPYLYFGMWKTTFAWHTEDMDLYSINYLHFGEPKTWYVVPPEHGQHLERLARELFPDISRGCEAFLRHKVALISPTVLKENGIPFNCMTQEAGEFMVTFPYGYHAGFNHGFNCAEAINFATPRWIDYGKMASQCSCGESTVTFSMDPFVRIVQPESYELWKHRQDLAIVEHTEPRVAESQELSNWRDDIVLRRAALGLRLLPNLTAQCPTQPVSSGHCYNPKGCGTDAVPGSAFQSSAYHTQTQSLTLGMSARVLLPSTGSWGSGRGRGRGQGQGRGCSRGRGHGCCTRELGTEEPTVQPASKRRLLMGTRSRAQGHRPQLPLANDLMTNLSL
Note: nearly all actives have a fitted effect of over 50% in size.
Potency is the fitted concentration of half-maximal effect; tags give direction and shape of the fitted curve.

SMILES | Potency
CC1=Nc2ccccc2N=C(N)C1c1ccccc1 (stereo not given) | inconclusive: 25.1 µM [inhibitor, partial curve]
O=C(Nc1ccc(C2=NCCN2)cc1)c1ccc(Cl)c(C(=O)Nc2ccc(C3=NCCN3)cc2)c1 | inconclusive: 31.6 µM [inhibitor, single point]
COc1ccc(-c2oc3ccccc3c(=O)c2OC(C)=O)cc1 | inconclusive: 31.6 µM [inhibitor, partial curve]
CN(C)c1ccc(/C=C/C=N/Nc2nc(N3CCOCC3)nc(N3CCOCC3)n2)cc1 | inconclusive: 3.16 µM [inhibitor, single point]
Clc1ccc(-[n+]2c(-c3cccc(Br)c3)[nH]c3nc4ccccc4nc32)cc1 | inconclusive: 28.2 µM [inhibitor, partial curve]
c1cc(-n2nnc3cnccc32)ccn1 | inactive
CC(C)c1ccc(Nc2nnc(SCC(=O)c3nnc(-c4ccccc4)o3)s2)cc1 | inconclusive: 39.8 µM [inhibitor, single point]
CN(C)c1ccc(C(=O)OCC(=O)NC2CCCCCC2)cc1 | inconclusive: 35.5 µM [inhibitor, single point]
CCCNC(=O)Cn1c(=O)cnc2ccccc21 | inconclusive: 35.5 µM [inhibitor, partial curve]
CCCCN(C(=O)NC(=O)Nc1nc2ccc(OC)cc2s1)S(C)(=O)=O | inconclusive: 7.08 µM [inhibitor, single point]
O=C(/C=C/c1cccc(Cl)c1)NCc1cccs1 | inactive
COc1ccc(/C=C2\CN(Cc3ccccc3)C/C(=C\c3ccc(OC)cc3)C2=O)cc1 | inconclusive: 20 µM [inhibitor, single point]
CCOC(=O)c1cccc(NC(=O)c2cccs2)c1 | inactive
Cc1ccc(Cn2c(C)nc3c(c2=O)c2nc4ccccc4nc2n3Cc2ccco2)cc1 | inconclusive: 35.5 µM [inhibitor, single point]
Cn1c(C(=O)NC2CCCC2)cc2c(=O)n(C)c3ccccc3c21 | inconclusive: 31.6 µM [inhibitor, partial curve]
O=P(O)(O)c1ccccc1OCCOCCOCCOCCOc1ccccc1P(=O)(O)O | inactive
CC(O)CNc1nc2ccccc2n1CC(=O)N1CCN(Cc2ccccc2)CC1 (stereo not given) | inactive
CCOC(=O)C(C)Oc1c(C(=O)OC)sc2ncccc12 (stereo not given) | inconclusive: 35.5 µM [inhibitor, single point]
CCCCc1ccc(NC(=S)NCC2CCCO2)cc1 (stereo not given) | inconclusive: 39.8 µM [inhibitor, single point]
COc1ccc(NC(=O)CSc2ncc(-c3ccc(F)cc3)n2Cc2ccco2)cc1 | inactive
CC(=O)c1ccc(-c2nc3c4ccccc4ccn3c2C(C)=O)o1 | inconclusive: 8.91 µM [inhibitor, partial curve]
Cc1c(O)c2ccccc2oc1=O | inconclusive: 28.2 µM [inhibitor, partial curve]
COc1ccc2c(c1)c(C(=O)CNc1nc(C)cs1)c(C)n2C | inconclusive: 31.6 µM [inhibitor, single point]
CSc1nncc(/C(C)=N\Nc2cccc(C)c2)n1 | inactive

SMILES | Potency
COc1ccc(-c2cc(C(F)(F)F)nc(SCC(=O)Nc3cc(C)on3)n2)cc1OC | inconclusive: 35.5 µM [inhibitor, partial curve]
COc1ccc(C2=NN(C(=O)CCC(=O)O)C(c3cccs3)C2)cc1OC (stereo not given) | inconclusive: 31.6 µM [inhibitor, partial curve]
COc1c(-c2ccccc2)oc2c(ccc3occc32)c1=O | inconclusive: 35.5 µM [inhibitor, partial curve]
OC1CCCN(Cc2ccc3ccc4cccc5ccc2c3c45)C1 (stereo not given) | inconclusive: 28.2 µM [inhibitor, single point]
COc1ccc(CNC(=O)CCc2nc(-c3ccccc3F)no2)c(OC)c1 | inactive
O=C(OCCNc1nc(-c2ccccc2)nc2ccccc12)c1cccnc1 | inconclusive: 28.2 µM [inhibitor, partial curve]
CCN(CC)S(=O)(=O)c1ccc(Oc2ccccc2)cc1 | inactive
O=c1[nH]c2ccccc2cc1-c1nnn(-c2ccc(F)cc2)n1 | inconclusive: 14.1 µM [inhibitor, partial curve]
COc1ccc(C(=O)Nc2nc(-c3cccs3)cs2)cc1 | inconclusive: 39.8 µM [inhibitor, single point]
O=C(O)c1cccc(C(=O)O)n1 | active: 8.91 µM
CC1=C(C(=O)OCc2ccccc2)C(c2ccc3ccccc3c2)NC(=O)N1CCCCCC(=O)O (stereo not given) | inactive
COc1ccc2[nH]c3c(c2c1)CCn1c-3nc2ccccc2c1=O | inconclusive: 3.55 µM [inhibitor, full curve]
COc1ccc(-c2cn3cccnc3n2)cc1NC(=O)C1CC1 | inconclusive: 28.2 µM [inhibitor, partial curve]
COc1ccc2c(c1)[n+](=O)c(C(C)=O)c(C)n2[O-] | inconclusive: 20 µM [inhibitor, partial curve]
COC(=O)COc1cccc2c(=O)n(CC(=O)N3CCCc4ccccc43)ccc12 | inconclusive: 39.8 µM [inhibitor, single point]
COC(=O)c1oc2ccc(Cl)cc2c1N | inconclusive: 28.2 µM [inhibitor, partial curve]
CCOC(=O)c1c(-c2ccccc2)csc1NC(=O)C(C)NCc1ccco1 (stereo not given) | inconclusive: 31.6 µM [inhibitor, single point]
Nc1ccccc1C(=O)N/N=C1/C2CN3CCN(C2)CC1(Cc1ccccc1)C3 | inconclusive: 39.8 µM [inhibitor, single point]
Cc1cc(C)nc(N2CCC(C(=O)NNC(=O)c3ccc(Cl)cc3)CC2)n1 | inconclusive: 5.01 µM [inhibitor, single point]
Cn1c(=O)n(C)c2cc([N+](=O)[O-])c(N3CCN(C(=O)c4ccccc4Cl)CC3)cc21 | inactive
CCn1nc(NC(=O)C2CCCO2)c2cc3cc(C)ccc3nc21 (stereo not given) | inconclusive: 28.2 µM [inhibitor, partial curve]
CC1CCCN(CCSc2ccc(Cl)cc2)C1 (stereo not given) | inconclusive: 39.8 µM [inhibitor, single point]
N=c1oc2cc(O)ccc2cc1C(=O)Nc1nc2ccccc2s1 | inconclusive: 3.55 µM [inhibitor, full curve]
N#CCCn1cnc2c(=S)nc[nH]c21 | inactive

SMILES | Potency
Cc1nc2sccn2c(=O)c1CCN1CCC(=C(c2ccccc2)c2ccc(F)cc2)CC1 | inconclusive: 22.4 µM [inhibitor, partial curve] and inconclusive: 5.01 µM [inhibitor, full curve, poor fit]
COc1cccc(C(=O)Nc2cc3c(cc2C(C)=O)OCCO3)c1 | inconclusive: 31.6 µM [inhibitor, single point]
C=CCC(C)(O)c1cccs1 (stereo not given) | inactive
CCN(CC)CCCNC(=O)C(C)n1c2ccccc2c2nc(=O)cc(C)n21 (stereo not given) | inconclusive: 28.2 µM [inhibitor, partial curve]
O=C1CN(/N=C/c2ccc([N+](=O)[O-])o2)C(=O)N1 | inconclusive: 14.1 µM [inhibitor, partial curve]
CS(=O)(=O)c1ccc(-c2cc(Br)sc2-c2ccc(F)cc2)cc1 | inconclusive: 31.6 µM [inhibitor, partial curve]
CCOC(=O)C1=C(C)NC(=O)CC1c1cc2c(cc1[N+](=O)[O-])OCO2 (stereo not given) | inconclusive: 31.6 µM [inhibitor, partial curve]
O=C(NCCCn1ccnc1)c1cc2nc(-c3ccc(Br)cc3)cc(C(F)(F)F)n2n1 | inconclusive: 35.5 µM [inhibitor, single point]
CCN(CC)CC(=O)c1ccc(-c2ccccc2)cc1 | inconclusive: 25.1 µM [inhibitor, partial curve]
Cc1ccc2nc3c(cc2c1)c(NS(=O)(=O)c1ccccc1)nn3CC(C)C | inconclusive: 35.5 µM [inhibitor, single point]
O=C(COc1ccc(S(=O)(=O)NC2CCCCC2)cc1)NCCC1=CCCCC1 | inactive
COC(=O)CC1[C@@]2(C)C[C@@]34OC5(C)OC6(CC[C@@]7(C)C(c8ccoc8)OC(=O)C(C(C)=O)C7[C@]6(O5)C(O)[C@@]3(O)C2O)[C@]14C (stereo not given in full) | inactive
COc1ccc(N=Cc2sc(O)c3ccccc23)cc1 | inconclusive: 39.8 µM [inhibitor, single point]
CC(C)Cn1nc(NC(=O)C2CCCO2)c2cc3ccccc3nc21 (stereo not given) | inconclusive: 25.1 µM [inhibitor, partial curve]
COC(=O)/C(=C(/F)Sc1cc(C)c(O)c(C)c1)C(F)(F)F | inactive
CCc1cc2c(=O)c(-c3cnn(-c4ccccc4)c3)c(C)oc2cc1OCC(=O)Nc1cccc(C)c1 | inactive
CC(=O)C1=C(O)C(=O)N(c2ccc(S(N)(=O)=O)cc2)C1c1cccc([N+](=O)[O-])c1 (stereo not given) | inactive
COCCCNC(=O)Cn1nc(-c2ccc(C)cc2)ccc1=O | inconclusive: 31.6 µM [inhibitor, single point]
N[C@H](C(=O)O)c1ccc(C(=O)O)cc1 | inconclusive: 10 µM [inhibitor, partial curve, poor fit]
Cc1nc2sc3c(c2c(=O)n1N)CCC3 | inactive
S=c1ccss1 | inconclusive: 28.2 µM [inhibitor, single point]
CC(=O)Sc1nc(-c2ccccc2)[nH]c1S(=O)(=O)c1ccc(C)cc1 | active: 10 µM
